Some of the results follow. Rule as the data show it: active = 3.2 or more and inactive = the rest. Most of these values are background signal.
Columns and labels:
Experiment in all cases: enrichment score (SH2-bound / input frequency) (ratio); bacterial display of known human phosphotyrosine sites (pTyr-Var adds point mutants) read by sequencing; higher = stronger binding; tyrosines were phosphorylated by kinases first
Conditions in all cases: peptide library: pTyr-Var
SHP2 C-SH2 domain E139D = target: SHP2 C-SH2 domain E139D
[1] = target: SHP2 C-SH2 domain wild-type
SHP2 N-SH2 domain L43F = target: SHP2 N-SH2 domain L43F
SHP2 N-SH2 domain T42A = target: SHP2 N-SH2 domain T42A
SHP2 N-SH2 domain T52S = target: SHP2 N-SH2 domain T52S
[2] = target: SHP2 N-SH2 domain wild-type

Measured: enrichment score
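Also: displayed peptides selected on beads carrying the immobilized SH2 domain, with library peptides lacking any tyrosine serving as negative controls.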

B1: ALDH2_Y332 (peptide)
chain: VQEDIYDEFVE
inactive: SHP2 C-SH2 domain E139D 0.814 | [1] 1.07 | SHP2 N-SH2 domain L43F 0.878 | SHP2 N-SH2 domain T42A 0.852 | SHP2 N-SH2 domain T52S 0.882 | [2] 0.891

B2: ALK_Y1092_D1091N (peptide)
chain: TIMTNYNPNYC
inactive: SHP2 C-SH2 domain E139D 1.04 | [1] 0.626 | SHP2 N-SH2 domain L43F 0.782 | SHP2 N-SH2 domain T42A 0.656 | SHP2 N-SH2 domain T52S 0.638 | [2] 0.982

B3: ALK_Y1131 (peptide)
chain: AFGEVYEGQVS
inactive: SHP2 C-SH2 domain E139D 0.762 | [1] 0.594 | SHP2 N-SH2 domain L43F 0.657 | SHP2 N-SH2 domain T42A 0.599 | SHP2 N-SH2 domain T52S 0.605 | [2] 0.761

B4: ALDH3A1_Y305 (peptide)
chain: GQKVAYGGTGD
inactive: SHP2 C-SH2 domain E139D 0.45 | [1] 0.497 | SHP2 N-SH2 domain L43F 0.449 | SHP2 N-SH2 domain T42A 0.639 | SHP2 N-SH2 domain T52S 0.543 | [2] 0.514

B5: ALDOB_Y223 (peptide)
chain: NDHHVYLEGTL
inactive: SHP2 C-SH2 domain E139D 1.02 | [1] 0.822 | SHP2 N-SH2 domain L43F 0.915 | SHP2 N-SH2 domain T42A 0.802 | SHP2 N-SH2 domain T52S 0.893 | [2] 1.04

B6: AMZ2_Y26 (peptide)
chain: VLVSQYEKLNA
inactive: SHP2 C-SH2 domain E139D 0.791 | [1] 0.859 | SHP2 N-SH2 domain L43F 0.664 | SHP2 N-SH2 domain T42A 0.767 | SHP2 N-SH2 domain T52S 1.01 | [2] 1.14

B7: ALK_Y1096_D1091N_YF (peptide)
chain: NFNPNYCFAGK
inactive: SHP2 C-SH2 domain E139D 0.712 | [1] 0.713 | SHP2 N-SH2 domain L43F 0.664 | SHP2 N-SH2 domain T42A 0.804 | SHP2 N-SH2 domain T52S 0.748 | [2] 0.87

B8: ALDOB_Y302 (peptide)
chain: KLSFSYGRALQ
inactive: SHP2 C-SH2 domain E139D 1.08 | [1] 0.882 | SHP2 N-SH2 domain L43F 0.929 | SHP2 N-SH2 domain T42A 1.05 | SHP2 N-SH2 domain T52S 0.98 | [2] 1.11

B9: ALX3_Y181 (peptide)
chain: HYPDVYAREQL
inactive: SHP2 C-SH2 domain E139D 0.93 | [1] 0.721 | SHP2 N-SH2 domain L43F 0.734 | SHP2 N-SH2 domain T42A 0.94 | SHP2 N-SH2 domain T52S 0.863 | [2] 0.865

B10: ALPK2_Y1975_A1978T (peptide)
chain: LIQRNYKLTAQ
inactive: SHP2 C-SH2 domain E139D 0.7 | [1] 0.797 | SHP2 N-SH2 domain L43F 0.759 | SHP2 N-SH2 domain T42A 0.799 | SHP2 N-SH2 domain T52S 0.528 | [2] 0.709

B11: ALK_Y1278_R1275L_YF (peptide)
chain: MALDIYRASFF
inactive: SHP2 C-SH2 domain E139D 1.74 | [1] 1.5 | SHP2 N-SH2 domain L43F 1.6 | SHP2 N-SH2 domain T42A 1.52 | SHP2 N-SH2 domain T52S 1.53 | [2] 1.57

B12: ALK_Y1283 (peptide)
chain: YRASYYRKGGC
inactive: SHP2 C-SH2 domain E139D 0.288 | [1] 0.315 | SHP2 N-SH2 domain L43F 0.346 | SHP2 N-SH2 domain T42A 0.328 | SHP2 N-SH2 domain T52S 0.336 | [2] 0.287

B13: ALK_Y1278 (peptide)
chain: MARDIYRASYY
inactive: SHP2 C-SH2 domain E139D 0.9 | [1] 0.695 | SHP2 N-SH2 domain L43F 0.802 | SHP2 N-SH2 domain T42A 0.669 | SHP2 N-SH2 domain T52S 0.848 | [2] 0.882

B14: ALDH2_Y497 (peptide)
chain: RELGEYGLQAY
inactive: SHP2 C-SH2 domain E139D 0.843 | [1] 0.848 | SHP2 N-SH2 domain L43F 0.564 | SHP2 N-SH2 domain T42A 0.661 | SHP2 N-SH2 domain T52S 0.532 | [2] 0.779

B15: ALPL_Y117_A114G (peptide)
chain: GTGTAYLCGVK
inactive: SHP2 C-SH2 domain E139D 1.13 | [1] 0.89 | SHP2 N-SH2 domain L43F 0.768 | SHP2 N-SH2 domain T42A 0.82 | SHP2 N-SH2 domain T52S 0.634 | [2] 1.03

B16: ANAPC4_Y469_R465Q (peptide)
chain: NQKGKYFNVER
inactive: SHP2 C-SH2 domain E139D 0.803 | [1] 0.897 | SHP2 N-SH2 domain L43F 0.756 | SHP2 N-SH2 domain T42A 0.62 | SHP2 N-SH2 domain T52S 0.755 | [2] 0.62

B17: ALK_Y1131_G1128A (peptide)
chain: AFAEVYEGQVS
inactive: SHP2 C-SH2 domain E139D 0.697 | [1] 0.968 | SHP2 N-SH2 domain L43F 0.936 | SHP2 N-SH2 domain T42A 0.645 | SHP2 N-SH2 domain T52S 0.804 | [2] 1.04

B18: ALOX5_Y446_A447S (peptide)
chain: MKDLTYSSLCF
inactive: SHP2 C-SH2 domain E139D 1.01 | [1] 1.08 | SHP2 N-SH2 domain L43F 1.56 | SHP2 N-SH2 domain T42A 1.22 | SHP2 N-SH2 domain T52S 1.27 | [2] 1.63

B19: ALDH2_Y502 (peptide)
chain: YGLQAYTEVKT
active: SHP2 N-SH2 domain T42A 4.48
inactive: SHP2 C-SH2 domain E139D 1.17 | [1] 2.26 | SHP2 N-SH2 domain L43F 1.23 | SHP2 N-SH2 domain T52S 1.44 | [2] 1.01

B20: ALDH3A1_Y272 (peptide)
chain: SLKEFYGEDAK
inactive: SHP2 C-SH2 domain E139D 0.743 | [1] 0.797 | SHP2 N-SH2 domain L43F 0.755 | SHP2 N-SH2 domain T42A 0.718 | SHP2 N-SH2 domain T52S 0.624 | [2] 0.719

B21: ALPK3_Y342 (peptide)
chain: HTLQLYRCREE
inactive: SHP2 C-SH2 domain E139D 0.488 | [1] 0.516 | SHP2 N-SH2 domain L43F 0.275 | SHP2 N-SH2 domain T42A 0.296 | SHP2 N-SH2 domain T52S 0.225 | [2] 0.235

B22: ALDH2_Y497_YF (peptide)
chain: RELGEYGLQAF
inactive: SHP2 C-SH2 domain E139D 0.743 | [1] 0.654 | SHP2 N-SH2 domain L43F 1 | SHP2 N-SH2 domain T42A 0.473 | SHP2 N-SH2 domain T52S 0.855 | [2] 0.765

B23: AMH_Y195 (peptide)
chain: SRDTRYLVLAV
active: SHP2 N-SH2 domain L43F 3.21 | SHP2 N-SH2 domain T42A 6.25 | SHP2 N-SH2 domain T52S 3.2
inactive: SHP2 C-SH2 domain E139D 1.9 | [1] 2.47 | [2] 2.18

B24: ALPL_Y117 (peptide)
chain: GTATAYLCGVK
inactive: SHP2 C-SH2 domain E139D 0.705 | [1] 1.11 | SHP2 N-SH2 domain L43F 0.752 | SHP2 N-SH2 domain T42A 0.907 | SHP2 N-SH2 domain T52S 0.687 | [2] 1.31

B25: ALDH1A3_Y497_YF (peptide)
chain: FALAEYTEVKT
inactive: SHP2 C-SH2 domain E139D 1.31 | [1] 1.03 | SHP2 N-SH2 domain L43F 0.986 | SHP2 N-SH2 domain T42A 2.02 | SHP2 N-SH2 domain T52S 0.88 | [2] 1.03

B26: ALOX12B_Y318 (peptide)
chain: IYLADYRIMEG
inactive: SHP2 C-SH2 domain E139D 1.79 | [1] 1.59 | SHP2 N-SH2 domain L43F 1.51 | SHP2 N-SH2 domain T42A 1.59 | SHP2 N-SH2 domain T52S 1.62 | [2] 1.71

B27: ALDOB_Y302_R304W (peptide)
chain: KLSFSYGWALQ
inactive: SHP2 C-SH2 domain E139D 1.5 | [1] 1.79 | SHP2 N-SH2 domain L43F 1.73 | SHP2 N-SH2 domain T42A 1.42 | SHP2 N-SH2 domain T52S 1.55 | [2] 1.95

B28: ALK_Y1096_YF (peptide)
chain: DFNPNYCFAGK
inactive: SHP2 C-SH2 domain E139D 0.945 | [1] 0.705 | SHP2 N-SH2 domain L43F 0.856 | SHP2 N-SH2 domain T42A 0.638 | SHP2 N-SH2 domain T52S 0.781 | [2] 0.89

B29: ALK_Y1278_A1274T (peptide)
chain: MTRDIYRASYY
inactive: SHP2 C-SH2 domain E139D 0.777 | [1] 0.829 | SHP2 N-SH2 domain L43F 0.835 | SHP2 N-SH2 domain T42A 0.796 | SHP2 N-SH2 domain T52S 0.699 | [2] 0.974

B30: ALDOA_Y343_C339Y_YF (peptide)
chain: AFQGKYTPSGQ
inactive: SHP2 C-SH2 domain E139D 0.954 | [1] 1.15 | SHP2 N-SH2 domain L43F 0.944 | SHP2 N-SH2 domain T42A 0.736 | SHP2 N-SH2 domain T52S 0.725 | [2] 0.703

B31: ALK_Y1604 (peptide)
chain: PGAGHYEDTIL
inactive: SHP2 C-SH2 domain E139D 0.411 | [1] 0.5 | SHP2 N-SH2 domain L43F 0.662 | SHP2 N-SH2 domain T42A 0.537 | SHP2 N-SH2 domain T52S 0.626 | [2] 0.63

B32: ALDOA_Y138_G142V (peptide)
chain: ERCAQYKKDVA
inactive: SHP2 C-SH2 domain E139D 1.3 | [1] 1.18 | SHP2 N-SH2 domain L43F 1.15 | SHP2 N-SH2 domain T42A 1.25 | SHP2 N-SH2 domain T52S 1.1 | [2] 1.24

B33: ALK_Y1096_D1091N (peptide)
chain: NYNPNYCFAGK
inactive: SHP2 C-SH2 domain E139D 0.753 | [1] 0.624 | SHP2 N-SH2 domain L43F 0.692 | SHP2 N-SH2 domain T42A 0.549 | SHP2 N-SH2 domain T52S 0.604 | [2] 0.685

B34: ALDH3B2_Y362_H361R (peptide)
chain: LKEIRYPPYTD
inactive: SHP2 C-SH2 domain E139D 0.943 | [1] 0.883 | SHP2 N-SH2 domain L43F 0.985 | SHP2 N-SH2 domain T42A 0.923 | SHP2 N-SH2 domain T52S 0.976 | [2] 0.888

B35: ALDH2_Y502_E504K_YF (peptide)
chain: FGLQAYTKVKT
inactive: SHP2 C-SH2 domain E139D 1.22 | [1] 1.73 | SHP2 N-SH2 domain L43F 1.27 | SHP2 N-SH2 domain T42A 1.72 | SHP2 N-SH2 domain T52S 1.33 | [2] 1.18

B36: ALDH2_Y502_YF (peptide)
chain: FGLQAYTEVKT
inactive: SHP2 C-SH2 domain E139D 1.33 | [1] 2.32 | SHP2 N-SH2 domain L43F 2.13 | SHP2 N-SH2 domain T52S 2.17 | [2] 1.23
active: SHP2 N-SH2 domain T42A 6.66

B37: ALK_Y1604_P1599H (peptide)
chain: HGAGHYEDTIL
inactive: SHP2 C-SH2 domain E139D 0.828 | [1] 1.25 | SHP2 N-SH2 domain L43F 1.09 | SHP2 N-SH2 domain T42A 0.735 | SHP2 N-SH2 domain T52S 0.945 | [2] 1.18
